Data set [1] addresses T1, Thermoascus aurantiacus GH61A polypeptide (Thermoascus aurantiacus, UniProt G3XAP7, N13Y). The class given is biochemical. The following applies: AVICEL. As for the experimental part: Milled washed PCS was prepared according to the procedure described below.
Control saccharification reactions containing equivalent methanol-containing buffer concentrations, 2% and 10% (v/v) methanol, or no methanol, were performed on each 96-well plate. […] All experiments were performed in triplicate, unless otherwise indicated.
The filtrates were analyzed for sugar content as described below. […] Data were processed using MICROSOFT EXCEL® software (Microsoft, Richland, Wash., USA), or […]® software (Synergy Software, Reading, Pa., USA).
[formula] where 1.111 represents the mass conversion factor accounting for the hydration of glucose produced from the cellulose polymer. The fractional hydrolysis is defined herein as the conversion expressed as a fraction rather than as a percent (i.e., % conversion/100).
[formula] […] Thus for saccharification reactions where only the presence of a bicyclic compound differs, a difference in GH61 effect can be attributed to the effect of the bicyclic compound on the cellulolytic enhancing effect of the GH61 polypeptide.
The concentration of each compound tested was 1 mM, with the following exceptions: cyanidin chloride (0.52 mM), cyanin chloride (0.26 mM), genistin (0.39 mM), kuromanin chloride (0.34 mM), keracyanin chloride (0.26 mM), and rhamnetin (0.53 mM).

In data set [2] the target is T1, Thermoascus aurantiacus GH61A polypeptide. The data set can be described thus: AVICEL cellulolysis by T. reesei cellulase composition with combinations of compounds and T. aurantiacus GH61A polypeptide. It counts as biochemical. The settings on record: most mixtures of compounds at 1 mM.

Read-outs that look alike come from different tables or passages of the source.

For the molecule `Oc1cc(O)c2cc(O)c(-c3ccc(O)c(O)c3)[o+]c2c1.[Cl-]` [cyanidin chloride], the GH61 effect in data set [1] (compound 0.52 mM, 3 days of hydrolysis) was found to be 1.62±0.136; in data set [1] (compound 0.52 mM, 7 days of hydrolysis) it was 1.86±0.171. As to `OC[C@H]1O[C@@H](Oc2cc3c(O[C@@H]4O[C@H](CO)[C@@H](O)[C@H](O)[C@H]4O)cc(O)cc3[o+]c2-c2ccc(O)c(O)c2)[C@H](O)[C@@H](O)[C@@H]1O` [cyanin chloride], the GH61 effect is 1.12±0.0403 in data set [1] (compound 0.26 mM, 3 days of hydrolysis) and 1.11±0.0197 in data set [1] (compound 0.26 mM, 7 days of hydrolysis). For the molecule `O=c1c(O)c(-c2ccc(O)cc2O)oc2cc(O)cc(O)c12` [morin hydrate], the GH61 effect came to 1.13±0.0644 in data set [1] (compound 1 mM, 3 days of hydrolysis) and 1.17±0.125 in data set [1] (compound 1 mM, 7 days of hydrolysis).

B1: T. aurantiacus GH61A polypeptide: GH61A polypeptide having cellulolytic enhancing activity (SEQ ID NO: 14), recombinantly prepared in Aspergillus oryzae JaL250 (protein, listed as Thermoascus aurantiacus)
chain: MSFSKIIATAGVLASASLVAGHGFVQNIVIDGKYYGGYLVNQYPYMSNPPEVIAWSTTATDLGFVDGTGYQTPDIICHRGAKPGALTAPVSPGGTVELQWTPWPDSHHGPVINYLAPCNGDCSTVDKTQLEFFKIAESGLINDDNPPGIWASDNLIAANNSWTVTIPTTIAPGNYVLRHEIIALHSAQNQDGAQNYPQCINLQVTGGGSDNPAGTLGTALYHDTDPGILINIYQKLSSYIIPGPPLYTG
In the case of B1, the “overall conversion compared among GH61 polypeptides” value in data set [2] is given as “greatest overall conversion”.
